# Results as given in the supplement of paper PMC8728848.
# Some of the results follow.
# B1: Mg1lysM (Mycosphaerella graminicola) (protein)
# chain: QRNPITITPQFDCGATNSQQYVARSGDTLTKIAQEIYHDVVGVCDIARANNLADPNRIDAGTPYTIPINCQTYDRNSCL
# How the values were obtained:
# Assay in all cases: glycan array binding signal (z-score within array); higher = stronger binding
# Settings in all cases: glycan notation: IUPAC condensed, linker removed
# Fuc(a1-2)Gal = target: Fuc(a1-2)Gal
# Procedure, shortened: (§1)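 From the Consortium for Functional Glycomics database, 3228 arrays were curated, keeping only those whose protein sequence was available. Binding is given as a within-array Z-score averaged across arrays sharing a protein sequence and across linkers. Negative Z-scores can be read as non-binding.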
# Fuc(a1-2)Gal(b1-3)GalNAc = target: Fuc(a1-2)Gal(b1-3)GalNAc
# Procedure, shortened: as §1
# [1] = target: Fuc(a1-2)Gal(b1-3)GalNAc(a1-3)[Fuc(a1-2)]Gal(b1-4)Glc
# Procedure, shortened: as §1
# [2] = target: Fuc(a1-2)Gal(b1-3)GalNAc(a1-3)[Fuc(a1-2)]Gal(b1-4)GlcNAc
# Procedure, shortened: as §1
# [3] = target: Fuc(a1-2)Gal(b1-3)GalNAc(b1-3)Gal
# Procedure, shortened: as §1
# [4] = target: Fuc(a1-2)Gal(b1-3)GalNAc(b1-3)Gal(a1-4)Gal(b1-4)Glc
# Procedure, shortened: as §1
# [5] = target: Fuc(a1-2)Gal(b1-3)GalNAc(b1-4)[Neu5Ac(a2-3)]Gal(b1-4)Glc
# Procedure, shortened: as §1
# Fuc(a1-2)Gal(b1-3)GlcNAc = target: Fuc(a1-2)Gal(b1-3)GlcNAc
# Procedure, shortened: as §1
# [6] = target: Fuc(a1-2)Gal(b1-3)GlcNAc(b1-2)Man(a1-3)[Fuc(a1-2)Gal(b1-3)GlcNAc(b1-2)Man(a1-6)]Man(b1-4)GlcNAc(b1-4)GlcNAc
# Procedure, shortened: as §1
# [7] = target: Fuc(a1-2)Gal(b1-3)GlcNAc(b1-2)Man(a1-3)[Fuc(a1-2)Gal(b1-3)GlcNAc(b1-2)Man(a1-6)]Man(b1-4)GlcNAc(b1-4)[Fuc(a1-6)]GlcNAc
# Procedure, shortened: as §1
# [8] = target: Fuc(a1-2)Gal(b1-3)GlcNAc(b1-3)Gal(b1-4)Glc
# Procedure, shortened: as §1
# [9] = target: Fuc(a1-2)Gal(b1-3)GlcNAc(b1-3)GalNAc
# Procedure, shortened: as §1
# [10] = target: Fuc(a1-2)Gal(b1-3)GlcNAc(b1-3)[Fuc(a1-2)Gal(b1-3)GlcNAc(b1-6)]GalNAc
# Procedure, shortened: as §1
# [11] = target: Fuc(a1-2)Gal(b1-3)GlcNAc(b1-3)[Gal(b1-4)GlcNAc(b1-6)]Gal(b1-4)Glc
# Procedure, shortened: as §1
# [12] = target: Fuc(a1-2)Gal(b1-3)GlcNAc(b1-3)[Neu5Ac(a2-6)Gal(b1-4)GlcNAc(b1-6)]Gal(b1-4)Glc
# Procedure, shortened: as §1
# [13] = target: Fuc(a1-2)Gal(b1-3)GlcNAc6S
# Procedure, shortened: as §1
# [14] = target: Fuc(a1-2)Gal(b1-3)[Fuc(a1-4)]GlcNAc
# Procedure, shortened: as §1
# [15] = target: Fuc(a1-2)Gal(b1-3)[Fuc(a1-4)]GlcNAc(b1-2)Man(a1-3)[Fuc(a1-2)Gal(b1-3)[Fuc(a1-4)]GlcNAc(b1-2)Man(a1-3)]Man(b1-4)GlcNAc(b1-4)GlcNAc
# Procedure, shortened: as §1
# [16] = target: Fuc(a1-2)Gal(b1-3)[Fuc(a1-4)]GlcNAc(b1-2)Man(a1-3)[Fuc(a1-2)Gal(b1-3)[Fuc(a1-4)]GlcNAc(b1-2)Man(a1-6)]Man(b1-4)GlcNAc(b1-4)[Fuc(a1-6)]GlcNAc(b1-4)[Fuc(a1-6)]GlcNAc
# Procedure, shortened: as §1
# [17] = target: Fuc(a1-2)Gal(b1-3)[Fuc(a1-4)]GlcNAc(b1-3)[Fuc(a1-3)[Gal(b1-4)]GlcNAc(b1-6)]Gal(b1-4)Glc
# Procedure, shortened: as §1
# [18] = target: Fuc(a1-2)Gal(b1-3)[Fuc(a1-4)]GlcNAc(b1-3)[Gal(b1-4)GlcNAc(b1-6)]Gal(b1-4)Glc
# Procedure, shortened: as §1
# [19] = target: Fuc(a1-2)Gal(b1-4)Fuc(a1-3)]GlcNAc(b1-2)Man(a1-3)[Fuc(a1-2)Gal(b1-4)[Fuc(a1-3)]GlcNAc(b1-2)Man(a1-6)]Man(b1-4)GlcNAc(b1-4)GlcNAc
# Procedure, shortened: as §1
# Fuc(a1-2)Gal(b1-4)Glc = target: Fuc(a1-2)Gal(b1-4)Glc
# Procedure, shortened: as §1
# Fuc(a1-2)Gal(b1-4)Glc6S = target: Fuc(a1-2)Gal(b1-4)Glc6S
# Procedure, shortened: as §1
# Fuc(a1-2)Gal(b1-4)GlcNAc = target: Fuc(a1-2)Gal(b1-4)GlcNAc
# Procedure, shortened: as §1
# [20] = target: Fuc(a1-2)Gal(b1-4)GlcNAc(b1-2)Man
# Procedure, shortened: as §1
# [21] = target: Fuc(a1-2)Gal(b1-4)GlcNAc(b1-2)Man(a1-3)[Fuc(a1-2)Gal(b1-4)GlcNAc(b1-2)Man(a1-6)]Man(b1-4)GlcNAc(b1-4)GlcNAc
# Procedure, shortened: as §1
# [22] = target: Fuc(a1-2)Gal(b1-4)GlcNAc(b1-2)Man(a1-3)[Fuc(a1-2)Gal(b1-4)GlcNAc(b1-2)Man(a1-6)]Man(b1-4)GlcNAc(b1-4)[Fuc(a1-6)]GlcNAc
# Procedure, shortened: as §1
# [23] = target: Fuc(a1-2)Gal(b1-4)GlcNAc(b1-2)[Fuc(a1-2)Gal(b1-4)GlcNAc(b1-4)]Man(a1-3)[Fuc(a1-2)Gal(b1-4)GlcNAc(b1-2)Man(a1-6)]Man(b1-4)GlcNAc(b1-4)GlcNAc
# Procedure, shortened: as §1
# [24] = target: Fuc(a1-2)Gal(b1-4)GlcNAc(b1-3)Gal(b1-4)GlcNAc
# Procedure, shortened: as §1
binder,measurement,setting,value
B1,glycan array binding signal (z-score),Fuc(a1-2)Gal,-0.028
same,glycan array binding signal (z-score),Fuc(a1-2)Gal(b1-3)GalNAc,-0.076
same,glycan array binding signal (z-score),[1],-0.09
same,glycan array binding signal (z-score),[2],-0.086
same,glycan array binding signal (z-score),[3],-0.086
same,glycan array binding signal (z-score),[4],-0.052
same,glycan array binding signal (z-score),[5],-0.068
same,glycan array binding signal (z-score),Fuc(a1-2)Gal(b1-3)GlcNAc,-0.056
same,glycan array binding signal (z-score),[6],-0.035
same,glycan array binding signal (z-score),[7],-0.07
same,glycan array binding signal (z-score),[8],-0.073
same,glycan array binding signal (z-score),[9],-0.088
same,glycan array binding signal (z-score),[10],-0.074
same,glycan array binding signal (z-score),[11],-0.097
same,glycan array binding signal (z-score),[12],-0.088
same,glycan array binding signal (z-score),[13],-0.037
same,glycan array binding signal (z-score),[14],-0.053
same,glycan array binding signal (z-score),[15],-0.071
same,glycan array binding signal (z-score),[16],-0.005
same,glycan array binding signal (z-score),[17],-0.076
same,glycan array binding signal (z-score),[18],-0.074
same,glycan array binding signal (z-score),[19],-0.028
same,glycan array binding signal (z-score),Fuc(a1-2)Gal(b1-4)Glc,-0.06
same,glycan array binding signal (z-score),Fuc(a1-2)Gal(b1-4)Glc6S,-0.091
same,glycan array binding signal (z-score),Fuc(a1-2)Gal(b1-4)GlcNAc,-0.058
same,glycan array binding signal (z-score),[20],-0.079
same,glycan array binding signal (z-score),[21],-0.053
same,glycan array binding signal (z-score),[22],-0.075
same,glycan array binding signal (z-score),[23],-0.073
same,glycan array binding signal (z-score),[24],-0.072
